Paper PMC5378613
Where a chain is given by its changes, count along the chain named. These are yes or no findings as the source states them, for the method shown. For some of these results: In cells and extracts the contact can be indirect. Some entries that bind do so weakly or less than the wild type. Sequences can lack the tags named with a protein. Values belong to the binder of their own block, whether it stands above or below them.

Protein sequences, listed by entry. Tags and fused reporters are not part of them.
UniProt P10275: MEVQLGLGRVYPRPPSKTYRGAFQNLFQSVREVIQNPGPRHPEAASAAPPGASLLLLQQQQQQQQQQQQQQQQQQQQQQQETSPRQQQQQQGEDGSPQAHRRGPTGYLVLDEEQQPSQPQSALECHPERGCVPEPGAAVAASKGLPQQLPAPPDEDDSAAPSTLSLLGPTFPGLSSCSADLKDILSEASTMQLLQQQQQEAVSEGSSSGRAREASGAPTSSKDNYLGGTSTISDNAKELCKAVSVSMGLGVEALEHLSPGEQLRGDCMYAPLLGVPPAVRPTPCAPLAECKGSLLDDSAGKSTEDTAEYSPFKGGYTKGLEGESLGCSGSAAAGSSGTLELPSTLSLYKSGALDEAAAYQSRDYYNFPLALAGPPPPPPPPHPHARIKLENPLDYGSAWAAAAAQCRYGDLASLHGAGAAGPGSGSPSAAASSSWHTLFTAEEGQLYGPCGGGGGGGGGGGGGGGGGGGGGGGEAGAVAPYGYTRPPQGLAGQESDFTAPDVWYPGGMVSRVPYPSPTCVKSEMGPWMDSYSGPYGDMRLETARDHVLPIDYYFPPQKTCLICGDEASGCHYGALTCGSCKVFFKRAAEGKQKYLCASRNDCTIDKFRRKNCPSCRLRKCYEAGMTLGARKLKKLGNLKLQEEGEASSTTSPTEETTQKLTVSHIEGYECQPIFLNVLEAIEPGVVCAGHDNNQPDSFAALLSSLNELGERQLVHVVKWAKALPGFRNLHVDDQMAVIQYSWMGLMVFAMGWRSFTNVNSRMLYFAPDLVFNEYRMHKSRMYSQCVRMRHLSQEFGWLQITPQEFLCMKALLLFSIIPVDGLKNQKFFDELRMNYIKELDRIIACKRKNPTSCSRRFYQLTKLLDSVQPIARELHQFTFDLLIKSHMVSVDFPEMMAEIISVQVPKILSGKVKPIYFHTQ

Key:
[1] = biological target: T1, wild-type His6-FKBP52 (52-kDa FK506-binding protein) (UniProt Q02790); experiment: pull-down; 6xHis-tagged FKBP52 bound to a nickel column, incubated with recombinant ID4 or its mutants; blotted (Pierce poly-histidine kit); both purified
T1 sequence: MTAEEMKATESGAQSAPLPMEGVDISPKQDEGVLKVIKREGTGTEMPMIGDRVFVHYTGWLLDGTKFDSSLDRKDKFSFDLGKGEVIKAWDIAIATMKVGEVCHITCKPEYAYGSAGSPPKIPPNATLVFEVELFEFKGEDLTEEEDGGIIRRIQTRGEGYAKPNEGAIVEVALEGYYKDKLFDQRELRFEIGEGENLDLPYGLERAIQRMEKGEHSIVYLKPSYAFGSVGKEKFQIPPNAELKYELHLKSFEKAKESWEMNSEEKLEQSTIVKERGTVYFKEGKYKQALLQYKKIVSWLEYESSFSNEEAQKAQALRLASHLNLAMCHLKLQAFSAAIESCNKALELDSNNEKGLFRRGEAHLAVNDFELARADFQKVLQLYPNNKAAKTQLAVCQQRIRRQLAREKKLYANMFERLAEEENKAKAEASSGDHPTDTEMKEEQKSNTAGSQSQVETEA

[2] = biological target: GST-tagged AR (androgen receptor) (UniProt P10275); experiment: pull-down; GST-AR bound to a glutathione-coupled Sepharose column; recombinant ID4 passed through with 6xHis-FKBP52, cell-free; eluate blotted for ID4, FKBP52 and AR (Pierce GST kit); both purified
[3] = biological target: T2, GST-ID4∆A mutant (ID4 in which the alanine tract was deleted) (human) (UniProt P47928); experiment: pull-down; GST-ID4 or mutant GST-ID4 on a column, LNCaP and DU145 whole-cell lysates; bound proteins immunoblotted; only the target purified
T2 sequence: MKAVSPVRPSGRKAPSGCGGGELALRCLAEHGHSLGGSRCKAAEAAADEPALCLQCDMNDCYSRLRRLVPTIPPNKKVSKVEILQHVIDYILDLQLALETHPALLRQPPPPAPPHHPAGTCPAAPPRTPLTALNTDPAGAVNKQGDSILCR

[4] = biological target: T3, GST-ID4S73A (ID4 HLH mutant) (human) (UniProt P47928); experiment: as above
T3 sequence: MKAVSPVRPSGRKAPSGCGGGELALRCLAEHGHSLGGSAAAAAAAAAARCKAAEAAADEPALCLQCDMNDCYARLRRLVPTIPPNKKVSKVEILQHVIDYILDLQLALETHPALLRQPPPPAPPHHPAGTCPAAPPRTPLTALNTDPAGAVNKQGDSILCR

[5] = biological target: T4, full-length GST-ID4 (human) (UniProt P47928); experiment: as above
T4 sequence: T3 sequence with A73S

B1: recombinant human ID4 (inhibitor of differentiation 4), full length (protein, UniProt P47928 1-161)
chain: T3 sequence with A73S
- binding [1]: binds

B2: recombinant ID4S73A (ID4 HLH mutant) (protein, UniProt P47928 1-161)
chain: T3 sequence
- binding [1]: no binding

B5: recombinant ID4∆A mutant (ID4 in which the alanine tract was deleted) (protein, UniProt P47928)
chain: T2 sequence
- binding [1]: binds

Now from value to binder:

- binding [2]: binds
B3: wild-type His6-FKBP52 (52-kDa FK506-binding protein) (protein, UniProt Q02790 1-459)
chain: T1 sequence

- binding [3]: binds
- binding [4]: no binding
- binding [5]: binds
B4: FKBP52 (52-kDa FK506-binding protein), endogenous in prostate cancer cells (protein, UniProt Q02790 1-459)
chain: T1 sequence
